This is one part of the list. Rule as the data show it: active = 3.2 or more and inactive = the rest. The signal is at background level for most entries.
Target: SHP2 C-SH2 domain E139D
Assay: enrichment score (SH2-bound / input frequency) (ratio); bacterial display of known human phosphotyrosine sites (pTyr-Var adds point mutants) read by sequencing; higher = stronger binding; tyrosines were phosphorylated by kinases first
Conditions: peptide library: pTyr-Var
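Also: displayed peptides selected on beads carrying the immobilized SH2 domain, with library peptides lacking any tyrosine serving as negative controls.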

Enrichment score, inactive:
AQADIYKADFQ [IKBKG_Y308] 0.671
SGVSFYINLCQ [IGF2R_Y2025_N2020S_YF] 0.388
FNNPAYYVLEG [INPPL1_Y986] 0.889
GDPTEYFSTAI [IGSF22_Y501_YF] 0.705
STLEVYRCHPP [IL21R_Y317_S318R] 0.758
YQLENYCNGGG [INS_Y108] 0.664
FTFTSYFMHWV [IGHV1-46_Y51_YF] 2.76
CQLENYCNGGG [INS_Y108_Y103C] 2.55
VMSGPYELKAL [IL1B_Y140] 0.71
KRLDGYVLEGW [IGSF9_Y656_R661W] 0.755
FPCSVYMPDEW [INSR_Y1011_V1012M] 1.32
KFVVVYFREID [IL17RB_Y447_YF] 2.82
STLEVYSCHPP [IL21R_Y317] 0.643
SGVSYYINLCQ [IGF2R_Y2025_N2020S] 0.676
GKFFQYDTWNQ [IGF2_Y116_K120N] 1.26
NNPAFYVLEGV [INPPL1_Y987_YF] 0.966
FTFNSYFMHWV [IGHV1-46_Y51_T49N_YF] 2.71
APTSGYQEFIH [IL4R_Y575_V579I] 0.952

Target: SHP2 C-SH2 domain wild-type
Assay: as above
Conditions: peptide library: pTyr-Var

Enrichment score, inactive:
AQADIYKADFQ [IKBKG_Y308] 0.952
SGVSFYINLCQ [IGF2R_Y2025_N2020S_YF] 2.62
FNNPAYYVLEG [INPPL1_Y986] 0.864
GDPTEYFSTAI [IGSF22_Y501_YF] 0.626
STLEVYRCHPP [IL21R_Y317_S318R] 0.923
YQLENYCNGGG [INS_Y108] 0.578
FTFTSYFMHWV [IGHV1-46_Y51_YF] 2.16
CQLENYCNGGG [INS_Y108_Y103C] 2.42
VMSGPYELKAL [IL1B_Y140] 0.741
KRLDGYVLEGW [IGSF9_Y656_R661W] 0.748
FPCSVYMPDEW [INSR_Y1011_V1012M] 0.915
KFVVVYFREID [IL17RB_Y447_YF] 2.38
STLEVYSCHPP [IL21R_Y317] 1.03
SGVSYYINLCQ [IGF2R_Y2025_N2020S] 0.853
GKFFQYDTWNQ [IGF2_Y116_K120N] 1.17
NNPAFYVLEGV [INPPL1_Y987_YF] 0.955
FTFNSYFMHWV [IGHV1-46_Y51_T49N_YF] 2.39
APTSGYQEFIH [IL4R_Y575_V579I] 0.561

Target: SHP2 N-SH2 domain L43F
Assay: as above
Conditions: peptide library: pTyr-Var

Enrichment score, inactive:
AQADIYKADFQ [IKBKG_Y308] 0.805
SGVSFYINLCQ [IGF2R_Y2025_N2020S_YF] 1.85
FNNPAYYVLEG [INPPL1_Y986] 1.09
GDPTEYFSTAI [IGSF22_Y501_YF] 0.566
STLEVYRCHPP [IL21R_Y317_S318R] 0.981
YQLENYCNGGG [INS_Y108] 0.772
FTFTSYFMHWV [IGHV1-46_Y51_YF] 2.46
CQLENYCNGGG [INS_Y108_Y103C] 2.78
VMSGPYELKAL [IL1B_Y140] 0.856
KRLDGYVLEGW [IGSF9_Y656_R661W] 0.876
FPCSVYMPDEW [INSR_Y1011_V1012M] 0.994
KFVVVYFREID [IL17RB_Y447_YF] 2.61
STLEVYSCHPP [IL21R_Y317] 0.621
SGVSYYINLCQ [IGF2R_Y2025_N2020S] 0.689
GKFFQYDTWNQ [IGF2_Y116_K120N] 1.25
NNPAFYVLEGV [INPPL1_Y987_YF] 0.98
FTFNSYFMHWV [IGHV1-46_Y51_T49N_YF] 3.02
APTSGYQEFIH [IL4R_Y575_V579I] 0.886

Target: SHP2 N-SH2 domain T42A
Assay: as above
Conditions: peptide library: pTyr-Var

Enrichment score, inactive:
AQADIYKADFQ [IKBKG_Y308] 0.611
SGVSFYINLCQ [IGF2R_Y2025_N2020S_YF] 0.858
FNNPAYYVLEG [INPPL1_Y986] 0.825
GDPTEYFSTAI [IGSF22_Y501_YF] 0.633
STLEVYRCHPP [IL21R_Y317_S318R] 0.715
YQLENYCNGGG [INS_Y108] 0.578
FTFTSYFMHWV [IGHV1-46_Y51_YF] 1.85
CQLENYCNGGG [INS_Y108_Y103C] 1.79
VMSGPYELKAL [IL1B_Y140] 0.64
KRLDGYVLEGW [IGSF9_Y656_R661W] 0.798
FPCSVYMPDEW [INSR_Y1011_V1012M] 0.865
KFVVVYFREID [IL17RB_Y447_YF] 1.9
STLEVYSCHPP [IL21R_Y317] 0.509
SGVSYYINLCQ [IGF2R_Y2025_N2020S] 0.487
GKFFQYDTWNQ [IGF2_Y116_K120N] 0.973
NNPAFYVLEGV [INPPL1_Y987_YF] 0.886
FTFNSYFMHWV [IGHV1-46_Y51_T49N_YF] 2.23
APTSGYQEFIH [IL4R_Y575_V579I] 0.794

Target: SHP2 N-SH2 domain T52S
Assay: as above
Conditions: peptide library: pTyr-Var

Enrichment score, inactive:
AQADIYKADFQ [IKBKG_Y308] 0.75
SGVSFYINLCQ [IGF2R_Y2025_N2020S_YF] 0.909
FNNPAYYVLEG [INPPL1_Y986] 0.79
GDPTEYFSTAI [IGSF22_Y501_YF] 0.56
STLEVYRCHPP [IL21R_Y317_S318R] 0.744
YQLENYCNGGG [INS_Y108] 0.387
FTFTSYFMHWV [IGHV1-46_Y51_YF] 2.73
CQLENYCNGGG [INS_Y108_Y103C] 2.48
VMSGPYELKAL [IL1B_Y140] 0.621
KRLDGYVLEGW [IGSF9_Y656_R661W] 0.834
FPCSVYMPDEW [INSR_Y1011_V1012M] 0.89
KFVVVYFREID [IL17RB_Y447_YF] 2.73
STLEVYSCHPP [IL21R_Y317] 0.594
SGVSYYINLCQ [IGF2R_Y2025_N2020S] 0.583
GKFFQYDTWNQ [IGF2_Y116_K120N] 1.55
NNPAFYVLEGV [INPPL1_Y987_YF] 1.11
FTFNSYFMHWV [IGHV1-46_Y51_T49N_YF] 2.32
APTSGYQEFIH [IL4R_Y575_V579I] 0.669

Target: SHP2 N-SH2 domain wild-type
Assay: as above
Conditions: peptide library: pTyr-Var

Enrichment score, inactive:
AQADIYKADFQ [IKBKG_Y308] 0.775
FNNPAYYVLEG [INPPL1_Y986] 0.876
GDPTEYFSTAI [IGSF22_Y501_YF] 1.08
STLEVYRCHPP [IL21R_Y317_S318R] 0.941
YQLENYCNGGG [INS_Y108] 0.488
FTFTSYFMHWV [IGHV1-46_Y51_YF] 2.81
CQLENYCNGGG [INS_Y108_Y103C] 2.37
VMSGPYELKAL [IL1B_Y140] 0.713
KRLDGYVLEGW [IGSF9_Y656_R661W] 0.811
FPCSVYMPDEW [INSR_Y1011_V1012M] 0.925
KFVVVYFREID [IL17RB_Y447_YF] 2.17
STLEVYSCHPP [IL21R_Y317] 1.08
SGVSYYINLCQ [IGF2R_Y2025_N2020S] 0.82
GKFFQYDTWNQ [IGF2_Y116_K120N] 1.11
NNPAFYVLEGV [INPPL1_Y987_YF] 1
FTFNSYFMHWV [IGHV1-46_Y51_T49N_YF] 2.61
APTSGYQEFIH [IL4R_Y575_V579I] 1.04

Enrichment score, active:
SGVSFYINLCQ [IGF2R_Y2025_N2020S_YF] 4.43

From the supplement of paper PMC10369915
